Measurements from PubChem BioAssay AID1768 (National Center for Advancing Translational Sciences (NCATS), 2009).
The whole screen tested about 270,000 compounds, of which about 620 (0.23%) were called active. Inconclusive results, whose numbers are uncertain, are shown with a selection of clear calls. Calls come from the whole dose curve; as a rule, active = well fitted inhibition curve with a large enough effect in the polarisation, with a control signal flat (not every such curve was filed as active); inconclusive = small, poorly fitted or top-dose-only effect, or effect the other way, or a change in a side signal; inactive = no such curve, though single readings can be large or run the other way; the % refers to the polarisation. Where the call is inconclusive, the potency comes from a doubtful curve fit. A note “side channel” means that the fit belongs to a control or component signal, not to the main read-out.

What follows are compounds tested against Menin (Homo sapiens) (UniProt O00255) (assay: qHTS Assay for Inhibitors Targeting the Menin-MLL Interaction in MLL Related Leukemias: Competition With Texas Red Labeled MLL-derived Mutant Peptide). Details: fluorescence polarization; FP activity change, negative = inhibition: at 61.6 µM (top of the series).
Potency is the fitted concentration of half-maximal effect; tags give direction and shape of the fitted curve or compound fluorescence and quenching.
Throughout, for FP activity change, negative = inhibition: % of control where 0% means no effect.

Chain of UniProt O00255 (O00255 whole entry, looked up): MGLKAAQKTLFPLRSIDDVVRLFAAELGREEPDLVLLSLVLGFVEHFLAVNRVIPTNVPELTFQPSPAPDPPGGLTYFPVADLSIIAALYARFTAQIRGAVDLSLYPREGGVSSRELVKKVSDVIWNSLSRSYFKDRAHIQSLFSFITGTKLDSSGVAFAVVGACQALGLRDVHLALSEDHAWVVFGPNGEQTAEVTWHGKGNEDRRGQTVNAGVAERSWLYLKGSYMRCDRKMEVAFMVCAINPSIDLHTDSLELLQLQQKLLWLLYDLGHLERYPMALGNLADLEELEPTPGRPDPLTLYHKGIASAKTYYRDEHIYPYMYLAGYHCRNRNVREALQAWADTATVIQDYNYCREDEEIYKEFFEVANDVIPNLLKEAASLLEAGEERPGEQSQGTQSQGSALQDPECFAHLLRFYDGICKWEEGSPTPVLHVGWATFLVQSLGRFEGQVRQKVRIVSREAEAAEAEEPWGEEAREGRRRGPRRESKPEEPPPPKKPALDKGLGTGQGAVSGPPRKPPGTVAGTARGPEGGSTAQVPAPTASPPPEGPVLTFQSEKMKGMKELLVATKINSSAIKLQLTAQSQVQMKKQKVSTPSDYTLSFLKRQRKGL

Potency, inconclusive:
O=C(Cc1ccccc1)NC(=S)Nc1ccc2oc(-c3ccccc3F)nc2c1 14.1 µM [inhibitor, partial curve]
CC1=NN(c2ccccc2)C(=O)/C1=C/c1cccc(C)c1 31.6 µM [quencher, side channel, single point]
O=C(N/N=C/c1ccc([N+](=O)[O-])o1)c1cc2c(ccc3ccccc32)o1 10 µM [quencher, side channel, partial curve]
O=C(c1cn(-c2ccccc2)nc1-c1ccc(F)cc1)N1CCCCC1 20 µM [fluorescent, side channel, partial curve]
Cn1cc(CN2CCC(n3nccc3NC(=O)c3ccccc3Cl)CC2)c2ccccc21 22.4 µM [inhibitor, partial curve, poor fit]
CC(C(=O)Nc1ccccc1)c1ccc(-c2ccccc2)c(F)c1 (stereo not drawn) 14.1 µM [quencher, side channel, partial curve]
CSc1nc(N)c(C#N)c(-c2ccccc2Cl)c1C#N 28.2 µM [quencher, side channel, single point]
Oc1ccccc1-c1nnc(COc2ccc(Cl)cc2Cl)o1 3.55 µM [quencher, side channel, full curve, poor fit]
O=[N+]([O-])c1ccc(/C=N/Nc2nc(N3CCCCCC3)nc(N3CCCCCC3)n2)o1 15.8 µM [quencher, side channel, partial curve]
CC(/C=N/n1c(-c2cccnc2)n[nH]c1=S)=C\c1ccccc1 39.8 µM [quencher, side channel, single point]
Clc1cccc(C2Nc3cccc4cccc(c34)N2)c1Cl 22.4 µM [quencher, side channel, partial curve]
Cc1cc2c3c(c1C)C(=O)C(=O)N3C(C)(C)CC2C (stereo not drawn) 39.8 µM [inhibitor, single point]
Cc1ccc(CN2CCNC(=O)C2CC(=O)N(C)C2CCOCC2)cc1 (stereo not drawn) 8.91 µM [inhibitor, single point]
COc1cc(NS(=O)(=O)c2ccc(NC(=O)c3ccc(Cl)cc3Cl)cc2)ncn1 14.1 µM [quencher, side channel, partial curve]
Cc1ccc(Nc2n[nH]c(C)c2[N+](=O)[O-])c(C)c1 35.5 µM [quencher, side channel, partial curve]
CC(C)N(C(=O)NC(=O)NCC1CCCO1)S(C)(=O)=O (stereo not drawn) 6.31 µM [inhibitor, single point]
COc1ccc2nc(NC(=O)C3CCCN(S(=O)(=O)c4c(C)noc4C)C3)sc2c1 (stereo not drawn) 25.1 µM [quencher, side channel, single point]
COc1cccc(C2CC(c3ccccc3)Nc3ncnn32)c1 (stereo not drawn) 2.24 µM [inhibitor, full curve, poor fit]
COc1cc(/C=C2\SC(=O)N(CC(=O)Nc3cccc(C)c3)C2=O)cc([N+](=O)[O-])c1O 14.1 µM [quencher, side channel, partial curve]
CCC1CN(C(=O)NCc2ccc(C)cc2)c2cc(C)ccc2O1 (stereo not drawn) 15.8 µM [fluorescent, side channel, partial curve]
CN1CCN(C(=O)/C(=C/c2ccc(F)cc2)c2ccsc2)CC1 10 µM [inhibitor, partial curve]
COc1ccc(OC)c(NC(=O)c2nnn(Cc3ccccc3C)c2N)c1 12.6 µM [quencher, side channel, partial curve]
CCCc1ccc(C(=O)Cn2nc(C(=O)O)c3ccccc3c2=O)cc1 31.6 µM [fluorescent, side channel, single point]
CCOc1ccc(NC(=S)N=Nc2c(O)[nH]c3ccccc23)cc1 17.8 µM [quencher, side channel, partial curve]
CCCCN(C)C(=O)C1CCN(Cc2cccc(OCc3ccccc3)c2)CC1 8.91 µM [inhibitor, partial curve]
CCOC(=O)C1(CC2CCCCO2)CCN(Cc2ccccc2-c2ccco2)CC1 (stereo not drawn) 14.1 µM [fluorescent, side channel, partial curve]
CCOc1ccc(/C=N/NC(=O)c2cc(-c3ccccc3)nc3ccccc23)cc1O 22.4 µM [quencher, side channel, single point]
CCCN1CCc2c(sc3nc(SCC)n(-c4ccc(OC)cc4)c(=O)c23)C1 2 µM [fluorescent, side channel, partial curve, poor fit]
S=C(NCc1ccc2[nH]c3c(c2c1)CCCC3)Nc1ccccc1 12.6 µM [quencher, side channel, partial curve]
O=C(O)/C=C\c1cn(-c2ccccc2)nc1-c1cc2ccccc2o1 8.91 µM [quencher, side channel, partial curve]
CC(C)=CCN1CCN(Cc2nc(-c3ccccc3)cs2)CC1CCO (stereo not drawn) 10 µM [inhibitor, partial curve]
O=S(=O)(c1cccc(-c2nnc(SCc3nc4ccccc4s3)o2)c1)N1CCOCC1 25.1 µM [fluorescent, side channel, single point]
Cc1ccc(-c2ccc(C(=O)Nc3cccc(F)c3)o2)c2ccccc12 14.1 µM [quencher, side channel, partial curve]
N#Cc1c(-c2cccs2)nc(SCC(=O)c2cccs2)[nH]c1=O 39.8 µM [quencher, side channel, single point]
N#Cc1c(SCC(=O)Nc2cccc(F)c2)sc2c(O)cc(=O)[nH]c12 28.2 µM [quencher, side channel, single point]
CCc1ccc(NC(=O)CC2C(=O)NCCN2C(=S)Nc2ccccc2)cc1 (stereo not drawn) 14.1 µM [quencher, partial curve]
COc1cccc(/C=C/c2ccc3cccc(O)c3n2)c1 14.1 µM [quencher, side channel, partial curve]
O=C(Nc1cc(C(F)(F)F)ccc1Cl)C1CCN(c2nnc(-n3cccc3)s2)CC1 39.8 µM [inhibitor, single point]
Clc1ccc(Nc2nc(-c3cccnc3)cs2)cc1 28.2 µM [quencher, side channel, partial curve]
CC(C)Oc1ccccc1OCCCOc1cccc2cccnc12 3.16 µM [fluorescent, side channel, full curve]
COc1cc(/C=N/c2oc(C)c(C)c2C#N)cc(Br)c1O 7.94 µM [quencher, side channel, partial curve]
O=C(N/N=C/c1ccccc1F)NC12CC3CC(CC(C3)C1)C2 11.2 µM [fluorescent, side channel, partial curve]
CCOC(=O)C1CCCN(CC(O)COc2ccc(OC)cc2C(C)(C)C)C1 (stereo not drawn) 28.2 µM [fluorescent, side channel, partial curve]
Cc1cc(O)c(C(C[N+](=O)[O-])c2ccc(Cl)cc2Cl)c(=O)o1 (stereo not drawn) 28.2 µM [quencher, side channel, single point]
NC(=O)c1ccccc1NCC(=O)c1ccc(Cl)cc1 39.8 µM [fluorescent, single point]
COc1cc(-c2nc(C)c(C(C)=O)n2O)ccc1OCC(=O)Nc1ccc(Cl)cc1 10 µM [quencher, side channel, partial curve]
Cc1noc2ncnc(Oc3ccccc3Cl)c12 35.5 µM [fluorescent, side channel, single point]
COc1ccccc1CC(=O)N1CCN(c2cccc(Cl)c2)CC1 12.6 µM [inhibitor, partial curve]
Cc1c2cnn(CC(=O)Nc3c(F)c(F)cc(F)c3F)c(=O)c2c(C)n1Cc1ccc(F)cc1 20 µM [fluorescent, side channel, partial curve]
O=C(COC(=O)c1ccccc1Nc1cccc(C(F)(F)F)c1)NCc1ccco1 20 µM [quencher, side channel, single point]

FP activity change, negative = inhibition, inactive:
CCC1(C)NC(=O)N(CC(=O)Nc2sc3c(c2C(=O)OC)CCCCC3)C1=O (stereo not drawn) -20%
COc1ccc(Br)cc1C1C2C=CCC(C)C2C(=O)N1Cc1ccccc1 (stereo not drawn) -15.8%
CC/C=C\C/C=C\C/C=C\C/C=C\C/C=C\C/C=C\CCC(=O)O[C@H](COCCCCCCCCCCCCCCCC)COP(=O)([O-])OCC[N+](C)(C)C -23.2%
O=C(O)c1ccccc1-c1oc2cc(O)ccc2c(=O)c1Oc1ccccc1 -18.4%
COc1cc(/C=N/NC(=O)c2ccncc2)ccc1OC(C)=O 8.41%
Cc1ccc(-c2[nH]ncc2/C=N/n2c(COc3ccccc3)nc3ccccc3c2=O)cc1 -15.6%
Cc1ccnc(N/C=C(\C#N)c2nc(-c3cccc(Br)c3)cs2)c1 -2.35%
COCCNC(=O)CCn1c(=O)oc2ccccc21 -8.95%
